Measured values: patent US12390536B2, “Antibody-drug complex containing toll-like receptor 7/8 dual agonist compound” (ASTELLAS PHARMA INC., priority 2022, dated 2025)
Substitutions are numbered along the chain they refer to.

T1: human CLDN6 (Homo sapiens, UniProt P56747)
T1 construct: The cells of human gastric cancer cell line NUGC-3 (JCRB cell bank) expressing CLDN6; host or cells: NUGC-3 human gastric cancer cell line
T1 sequence (P56747 1-220): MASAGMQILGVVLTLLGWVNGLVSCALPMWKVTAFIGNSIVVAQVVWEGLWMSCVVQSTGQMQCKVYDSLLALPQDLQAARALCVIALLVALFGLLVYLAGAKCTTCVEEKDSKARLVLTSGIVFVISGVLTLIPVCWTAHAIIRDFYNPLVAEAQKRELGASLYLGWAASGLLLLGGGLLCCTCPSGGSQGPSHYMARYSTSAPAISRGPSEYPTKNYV

B1: Ab1: anti-CLDN6 antibody comprising a heavy chain of SEQ ID NO: 2 and a light chain of SEQ ID NO: 4 (antibody)
heavy: QVQLVESGGGVVQPGGSLRLSCKASGYSFTGYTMNWVRQAPGKGLEWVGLINPYNGGTIYNQKFKGRFTLSVDKSKSTAYLQMNSLRAEDTAVYYCARDYGFVLDYWGRGTLVTVSSASTKGPSVFPLAPSSKSTSGGTAALGCLVKDYFPEPVTVSWNSGALTSGVHTFPAVLQSSGLYSLSSVVTVPSSSLGTQTYICNVNHKPSNTKVDKRV[human IgG1 Fc left out]
light: DIQLTQSPSSLSASVGDRVTITCSASSSVSYLHWFQQKPGKAPKLLVYSTSNLPSGVPSRFSGSGSGTDYTLTISSLQPEDFATYYCQQRSIYPPWTFGQGTKLEIKRTVAAPSVFIFPPSDEQLKSGTASVVCLLNNFYPREAKVQWKVDNALQSGNSQESVTEQDSKDSTYSLSSTLTLSKADYEKHKVYACEVTHQGLSSPVTKSFNRGEC
B2: Ab2: anti-CLDN6 antibody comprising a heavy chain of SEQ ID NO: 6 and a light chain of SEQ ID NO: 8 (antibody)
heavy: B1 heavy with F102Y
light: B1 light

Legend:
human CLDN6 = biological target: T1, human CLDN6; test: Evaluation of binding activity to human CLDN6 by flow cytometry (NUGC-3 cells); conditions: CLDN6 expressing gastric cancer cell line NUGC-3; 1 ng/mL to 25 μg/mL
Method: The cells of human gastric cancer cell line NUGC-3 (JCRB cell bank) expressing CLDN6 were suspended with PBS (Wako, #045-29795) containing 5% FBS so as to have a concentration of 1×10^6 cells/mL. The suspension was seeded (added) in the wells of a 96-well V-bottom microplate at a rate of 100 μL/well. After centrifugation, the supernatant was removed. AbM: antibody comprising a heavy chain, aCLDN6-VH—CH1—CH2—CH3 and a light chain, aCLDN6-VL-CL, disclosed in International Publication No. WO2022/058298. Ab0, Ab1 and Ab2 were suspended with 5% FBS-containing PBS such that the concentrations fall in the range of 1 ng/mL to 25 μg/mL (12 dilution series were prepared by serial dilution at a 2.5-fold dilution rate from 25 μg/mL to 1 ng/mL). The suspensions were added at a rate of 100 μL/well and allowed to stand still at 4° C. for one hour. […] A histogram of PE (phycoerythrin) fluorescence intensity of viable cell fractions was prepared and geometric mean fluorescence intensity (gMFI) was calculated. gMFI values were plotted to make a graph by GraphPad Prism (company: GraphPad Software).

NUGC-3 cells = test: Evaluation of in-vivo activity in xenograft model; conditions: NUGC-3 xenograft in SCID mice, 3 mg/kg via tail vein on Day 7 and Day 14 after transplantation
Method: NUGC-3 cells (5×10^6 cells) were suspended with 100 μL of Corning matrigel basal membrane matrix phenol red free (Corning, #356237) and subcutaneously transplanted into SCID mice (CB17/Icr-Prkdcscid/CrlCrlj, purchased from Charles River Laboratories Japan, Inc.) at the lateral region at a ratio of 100 μL/head. Day 7 and Day 14 after transplantation, PBS or a test antibody or a test antibody-drug conjugate (3 mg/kg) was administered through the tail vein of the tumor-bearing mice (n=6 or 9). As test antibodies, Ab0 and Ab1 were used. As test antibody-drug conjugates, ExL1A1, ExL5A1, ExL7A1, ExL1-Isotype, ExL5-Isotype and ExL7-Isotype were used. ExL1-Isotype is an antibody using an anti-KLH antibody (International Publication No. WO2013/094723) in place of Ab1 of ExL1A1. ExL5-Isotype and ExL7-Isotype were prepared in the same manner as in ExL1-Isotype. The major axis and minor axis of a transplanted tumor were measured by an electronic digital caliper (made by Mitutoyo Corporation) twice per week. A tumor volume was calculated in accordance with the following formula: […]

Row | Molecule | binding to human CLDN6 (gMFI, flow cytometry) (human CLDN6) | antitumor effect (tumor volume) (NUGC-3 cells)
1 | B1 | bind to human CLDN6 | none
2 | B2 | bind to human CLDN6 | –
